# Source: the supplement of paper PMC8728848
# The other results are listed elsewhere or left out.
# What was measured:
# Test in all cases: glycan array binding signal (z-score within array); higher = stronger binding
# Details in all cases: glycan notation: IUPAC condensed, linker removed
# [1] = biological target: Gal3S(b1-3)[Fuc(a1-4)]GlcNAc
# In short: (§1)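 Glycan array binding is given as a within-array Z-score, which can be read as non-binding when negative. The arrays, 3228 of them, came from the Consortium for Functional Glycomics database and were retained only where the protein sequence was available. Z-scores were averaged across arrays of the same protein sequence at different concentrations or buffers and across linkers.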
# Gal3S(b1-4)Glc = biological target: Gal3S(b1-4)Glc
# In short: as §1
# Gal3S(b1-4)Glc6S = biological target: Gal3S(b1-4)Glc6S
# In short: as §1
# Gal3S(b1-4)GlcNAc = biological target: Gal3S(b1-4)GlcNAc
# In short: as §1
# [2] = biological target: Gal3S(b1-4)[Fuc(a1-3)]Glc6S
# In short: as §1
# [3] = biological target: Gal3S(b1-4)[Fuc(a1-3)]GlcNAc
# In short: as §1
# [4] = biological target: Gal3S(b1-4)[Fuc(a1-3)]GlcNAc6S
# In short: as §1
# Gal3S4S(b1-4)GlcNAc = biological target: Gal3S4S(b1-4)GlcNAc
# In short: as §1
# Gal3S6S(b1-4)GlcNAc = biological target: Gal3S6S(b1-4)GlcNAc
# In short: as §1
# Gal3S6S(b1-4)GlcNAc6S = biological target: Gal3S6S(b1-4)GlcNAc6S
# In short: as §1
# Gal4S(b1-4)GlcNAc = biological target: Gal4S(b1-4)GlcNAc
# In short: as §1
# Gal4S6S(b1-4)GlcNAc = biological target: Gal4S6S(b1-4)GlcNAc
# In short: as §1
# Gal6P(b1-4)GlcNAc = biological target: Gal6P(b1-4)GlcNAc
# In short: as §1
# Gal6S(b1-3)GlcNAc = biological target: Gal6S(b1-3)GlcNAc
# In short: as §1
# Gal6S(b1-3)GlcNAc6S = biological target: Gal6S(b1-3)GlcNAc6S
# In short: as §1
# Gal6S(b1-4)Glc = biological target: Gal6S(b1-4)Glc
# In short: as §1
# Gal6S(b1-4)Glc6S = biological target: Gal6S(b1-4)Glc6S
# In short: as §1
# Gal6S(b1-4)GlcNAc = biological target: Gal6S(b1-4)GlcNAc
# In short: as §1
# Gal6S(b1-4)GlcNAc6S = biological target: Gal6S(b1-4)GlcNAc6S
# In short: as §1
# GalNAc(a1-3)Gal = biological target: GalNAc(a1-3)Gal
# In short: as §1
# GalNAc(a1-3)GalNAc = biological target: GalNAc(a1-3)GalNAc
# In short: as §1
# [5] = biological target: GalNAc(a1-3)GalNAc(b1-3)Gal(a1-4)Gal(b1-4)Glc
# In short: as §1
# [6] = biological target: GalNAc(a1-3)GalNAc(b1-3)Gal(a1-4)Gal(b1-4)GlcNAc
# In short: as §1
# GalNAc(b1-3)Gal = biological target: GalNAc(b1-3)Gal
# In short: as §1
# [7] = biological target: GalNAc(b1-3)Gal(a1-4)Gal(b1-4)GlcNAc
# In short: as §1
# [8] = biological target: GalNAc(b1-3)Gal(a1-4)Gal(b1-4)GlcNAc(b1-3)Gal(b1-4)Glc
# In short: as §1
# [9] = biological target: GalNAc(b1-3)Gal(a1-6)Gal(b1-4)Glc
# In short: as §1
# GalNAc(b1-3)GalNAc = biological target: GalNAc(b1-3)GalNAc
# In short: as §1
# GalNAc(b1-3)GlcNAc = biological target: GalNAc(b1-3)GlcNAc
# In short: as §1
# GalNAc(b1-4)Gal(b1-4)Glc = biological target: GalNAc(b1-4)Gal(b1-4)Glc
# In short: as §1
# GalNAc(b1-4)GlcNAc = biological target: GalNAc(b1-4)GlcNAc
# In short: as §1
# [10] = biological target: GalNAc(b1-4)GlcNAc(b1-2)Man
# In short: as §1
# [11] = biological target: GalNAc(b1-4)GlcNAc(b1-2)Man(a1-3)[GalNAc(b1-4)GlcNAc(b1-2)Man(a1-6)]Man(b1-4)GlcNAc(b1-4)GlcNAc
# In short: as §1
# [12] = biological target: GalNAc(b1-4)GlcNAc(b1-3)GalNAc(b1-4)GlcNAc
# In short: as §1
# GalNAc(b1-4)GlcNAc6S = biological target: GalNAc(b1-4)GlcNAc6S
# In short: as §1
# GalNAc(b1-6)GalNAc = biological target: GalNAc(b1-6)GalNAc
# In short: as §1
# GalNAc3S(b1-4)GlcNAc = biological target: GalNAc3S(b1-4)GlcNAc
# In short: as §1
# GalNAc3S(b1-4)GlcNAc3S = biological target: GalNAc3S(b1-4)GlcNAc3S
# In short: as §1
# [13] = biological target: GalNAc3S(b1-4)[Fuc(a1-3)]GlcNAc
# In short: as §1
# GalNAc4S6S(b1-4)GlcNAc = biological target: GalNAc4S6S(b1-4)GlcNAc
# In short: as §1
# GalNAc6S(b1-4)GlcNAc = biological target: GalNAc6S(b1-4)GlcNAc
# In short: as §1
# Glc(a1-4)Glc = biological target: Glc(a1-4)Glc
# In short: as §1
# [14] = biological target: Glc(a1-4)Glc(a1-4)Glc(a1-4)Glc
# In short: as §1
# Glc(a1-6)Glc(a1-6)Glc = biological target: Glc(a1-6)Glc(a1-6)Glc
# In short: as §1
# [15] = biological target: Glc(a1-6)Glc(a1-6)Glc(a1-6)Glc
# In short: as §1
binder,measurement,setting,value
"AFL5 (Aspergillus fumigatus), Q4WB00 (protein) MDNFMEMTKKLGHQPELLRLRALDATYDDALEGKLVVAPLDMSEPGKKILDSGTADGTWLRNVRSKQSVPHDYYGSDVEGELFPKDPDGITYFAHSFKDPWPQQYLGFFDLVHIRGSLAGSAPEGPAPVIQNLTTLLKPGGWVQLMEMNAFSPPPNGPAMTDFAKMASEMFTGIGVGDFANNNKSMLEDAGLKNVQEKRVIVNLGKKAKPELHDQSIHGVTGPIVPLTSVARTVKSSFTGEQLDALPARVKEELETEGGQVEMIIAFGQKA",glycan array binding signal (z-score),[1],0.21
same,glycan array binding signal (z-score),Gal3S(b1-4)Glc,0.158
same,glycan array binding signal (z-score),Gal3S(b1-4)Glc6S,-0.212
same,glycan array binding signal (z-score),Gal3S(b1-4)GlcNAc,0.093
same,glycan array binding signal (z-score),[2],0.374
same,glycan array binding signal (z-score),[3],0.221
same,glycan array binding signal (z-score),[4],0.418
same,glycan array binding signal (z-score),Gal3S4S(b1-4)GlcNAc,0.02
same,glycan array binding signal (z-score),Gal3S6S(b1-4)GlcNAc,0.383
same,glycan array binding signal (z-score),Gal3S6S(b1-4)GlcNAc6S,0.29
same,glycan array binding signal (z-score),Gal4S(b1-4)GlcNAc,-0.252
same,glycan array binding signal (z-score),Gal4S6S(b1-4)GlcNAc,-0.177
same,glycan array binding signal (z-score),Gal6P(b1-4)GlcNAc,-0.398
same,glycan array binding signal (z-score),Gal6S(b1-3)GlcNAc,-0.415
same,glycan array binding signal (z-score),Gal6S(b1-3)GlcNAc6S,0.427
same,glycan array binding signal (z-score),Gal6S(b1-4)Glc,-0.426
same,glycan array binding signal (z-score),Gal6S(b1-4)Glc6S,0.286
same,glycan array binding signal (z-score),Gal6S(b1-4)GlcNAc,-0.034
same,glycan array binding signal (z-score),Gal6S(b1-4)GlcNAc6S,-0.051
same,glycan array binding signal (z-score),GalNAc(a1-3)Gal,-0.479
same,glycan array binding signal (z-score),GalNAc(a1-3)GalNAc,-0.257
same,glycan array binding signal (z-score),[5],-0.241
same,glycan array binding signal (z-score),[6],-0.281
same,glycan array binding signal (z-score),GalNAc(b1-3)Gal,-0.162
same,glycan array binding signal (z-score),[7],0.257
same,glycan array binding signal (z-score),[8],0.616
same,glycan array binding signal (z-score),[9],0.524
same,glycan array binding signal (z-score),GalNAc(b1-3)GalNAc,0.114
same,glycan array binding signal (z-score),GalNAc(b1-3)GlcNAc,-0.465
same,glycan array binding signal (z-score),GalNAc(b1-4)Gal(b1-4)Glc,0.189
same,glycan array binding signal (z-score),GalNAc(b1-4)GlcNAc,0.348
same,glycan array binding signal (z-score),[10],-0.187
same,glycan array binding signal (z-score),[11],0.619
same,glycan array binding signal (z-score),[12],-0.282
same,glycan array binding signal (z-score),GalNAc(b1-4)GlcNAc6S,0.026
same,glycan array binding signal (z-score),GalNAc(b1-6)GalNAc,-0.013
same,glycan array binding signal (z-score),GalNAc3S(b1-4)GlcNAc,0.104
same,glycan array binding signal (z-score),GalNAc3S(b1-4)GlcNAc3S,-0.187
same,glycan array binding signal (z-score),[13],-0.018
same,glycan array binding signal (z-score),GalNAc4S6S(b1-4)GlcNAc,0.419
same,glycan array binding signal (z-score),GalNAc6S(b1-4)GlcNAc,-0.039
same,glycan array binding signal (z-score),Glc(a1-4)Glc,-0.249
same,glycan array binding signal (z-score),[14],-0.132
same,glycan array binding signal (z-score),Glc(a1-6)Glc(a1-6)Glc,-0.508
same,glycan array binding signal (z-score),[15],-0.101
